# Measured values reported in PubChem BioAssay AID624417 (National Center for Advancing Translational Sciences (NCATS), 2012).
# Out of some 410,000 compounds screened, about 6,400 (1.6%) were called active. Inconclusive means that the source gave no clear call. Such entries were picked first, then a sample of the others. Calls come from the whole dose curve; as a rule, active = well fitted inhibition curve with a large enough effect; inconclusive = small, poorly fitted or top-dose-only effect; inactive = no such curve, though single readings can be large or run the other way. Potencies of inconclusive entries are left out as doubtful fits.
# Target: Glucagon-like peptide 1 receptor (Homo sapiens) (UniProt P43220)
# Sequence of UniProt P43220 (P43220 whole entry, looked up): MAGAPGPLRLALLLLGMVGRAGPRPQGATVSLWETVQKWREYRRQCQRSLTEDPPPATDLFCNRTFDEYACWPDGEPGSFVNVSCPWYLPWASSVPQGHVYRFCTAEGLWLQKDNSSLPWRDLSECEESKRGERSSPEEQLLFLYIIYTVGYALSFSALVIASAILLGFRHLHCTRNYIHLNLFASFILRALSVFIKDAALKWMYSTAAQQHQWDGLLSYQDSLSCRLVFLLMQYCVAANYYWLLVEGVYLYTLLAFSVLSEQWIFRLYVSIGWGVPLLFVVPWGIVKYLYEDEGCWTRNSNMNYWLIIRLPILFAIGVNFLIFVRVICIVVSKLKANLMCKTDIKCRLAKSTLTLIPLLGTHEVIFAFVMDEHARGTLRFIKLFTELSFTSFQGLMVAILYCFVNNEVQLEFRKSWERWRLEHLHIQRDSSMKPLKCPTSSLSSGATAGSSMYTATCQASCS
# Assay: qHTS of GLP-1 Receptor Inverse Agonists (Inhibition Mode); note: nearly all actives have a fitted effect of over 55% in size
# Conditions: HEK293 GLP-1R CRE-luciferase, luminescence, 24 h; Potency: GLP-1R form is constitutively active unless noted; series mostly up to 38.3 µM
# Summary of the method: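 Inverse agonists were sought by their lowering of basal cAMP reporter luciferase output in HEK293 cells stably carrying constitutively active human GLP-1R, after 24 h compound treatment.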
# Potency is the fitted concentration of half-maximal effect; tags give direction and shape of the fitted curve.
row,Compound,Potency
1,CC(=O)/C=C/c1ccccc1,inactive
2,Cn1ccnc1P(=S)(c1nccn1C)N1CCOCC1,inactive
3,COC(=O)C1=C(c2cc3ccccc3s2)C[C@@H]2CC[C@H]1N2C(=O)NC1CC1,inactive
4,COc1ccc(NC(=O)c2cn(CCC#N)nc2-c2ccc([N+](=O)[O-])cc2)cc1,inactive
5,COC(=O)C1=C(c2ccc(OC(F)(F)F)cc2)C[C@@H]2CC[C@H]1N2C(=O)N1CCC(C)CC1,"inconclusive [inhibitor, partial curve, poor fit]"
6,COc1nc(NC2CCCCC2)nc(NC(C)(C)C)n1,"inconclusive [inhibitor, single point]"
7,CC(C)CNC(=O)c1c(N)n(Cc2ccc3c(c2)OCO3)c2nc3ccccc3nc12,"inconclusive [inhibitor, partial curve, poor fit]"
8,CC(Cc1ccccc1)[n+]1cc(/N=C(\[O-])Nc2ccccc2)on1 (centres undefined),inactive
9,O=C(O)CSCC(=O)N(Cc1ccccc1)c1nc(-c2ccccc2)c(-c2ccccc2)s1,"inconclusive [inhibitor, partial curve, poor fit]"
10,COc1ccc(S(=O)(=O)N2c3ccc(F)cc3CCC2C)cc1 (centres undefined),"inconclusive [inhibitor, full curve, poor fit]"
11,CN(C)c1ccc(/C=C2/C(=N\O)C3CCN2CC3)cc1,"inconclusive [inhibitor, partial curve]"
12,COc1cccc(C2CC3C(=O)C=CC2N3Cc2ccccc2)c1 (centres undefined),"inconclusive [inhibitor, single point]"
13,CCCOc1ccccc1NP(=O)(Oc1ccccc1)Oc1ccccc1,"inconclusive [inhibitor, full curve, poor fit]"
14,N[C@@H](Cn1oc(=O)[nH]c1=O)C(=O)O,inactive
15,O=C(Nc1ccc(C(F)(F)F)cc1)OC1CN2CCC1CC2 (centres undefined),"inconclusive [inhibitor, partial curve, poor fit]"
16,Cc1ccccc1-n1c(/C=C/c2ccc(O)cc2)nc2ccccc2c1=O,active: 11.2 µM [setting not given]
17,CN1C(=O)C(=Cc2ccccc2OCc2ccccc2Cl)C(=O)N(C)C1=O,active: 10 µM [setting not given]
18,CCOC(=O)C1(CCc2ccccc2)CCN(Cc2csc(C(C)=O)c2)CC1,"inconclusive [inhibitor, partial curve, poor fit]"
19,CCOC(=O)c1ccccc1C(=O)OCC,inactive
20,CCCCOc1ccc(C(=O)NCC(=O)N2CCN(C/C=C/c3ccccc3)CC2)cc1,"inconclusive [inhibitor, partial curve, poor fit]"
21,Cc1ccc(S(=O)(=O)N2CCCCC2)cc1NC(=O)Nc1ccc(Cl)cc1Cl,"inconclusive [inhibitor, partial curve, poor fit]"
22,O=C(NCCCN1CCCC1)c1ccc2c(c1)N(Cc1cccc(Cl)c1)C(=O)c1ccccc1S2=O (centres undefined),"inconclusive [inhibitor, partial curve, poor fit]"

row,Compound,Potency
1,C[C@H]1CNC(=O)c2c(C(=O)Nc3cccc(Cl)c3)ncn21,inactive
2,CSc1ncc(CN2CCCC(C(=O)c3ccccc3SC)C2)cn1 (centres undefined),"inconclusive [inhibitor, single point]"
3,O=C(Cn1ncc2c3ccccc3n(Cc3cccc(Cl)c3)c2c1=O)N1CCC2(CC1)OCCO2,"inconclusive [inhibitor, partial curve, poor fit]"
4,CCCNC(=O)N1[C@H]2CC[C@@H]1C(C(=O)OC)=C(c1ccc(OC(F)(F)F)cc1)C2,"inconclusive [inhibitor, partial curve, poor fit]"
5,Cc1ccccc1CN1CCCN(Cc2ccc(Cl)cc2)S1(=O)=O,"inconclusive [inhibitor, partial curve, poor fit]"
6,O=C1CNC(c2ccccc2Cl)c2cc(Br)ccc2N1 (centres undefined),"inconclusive [inhibitor, single point]"
7,CCCCSc1nc2c(cnn2-c2ccccc2)c(=O)n1N,"inconclusive [inhibitor, single point]"
8,CCOC(=O)C(=CNc1ccc(C(O)(C(=O)OCC)C(F)(F)F)cc1C)C(=O)OCC (centres undefined),"inconclusive [inhibitor, single point]"
9,O=C(c1ccc2c(c1)OCO2)C1CCCN(Cc2ccc(F)c(F)c2)C1 (centres undefined),"inconclusive [inhibitor, partial curve, poor fit]"
10,COc1ccc(OC)c(CC(=O)O)c1,inactive
11,Fc1ccc(CCNCc2ccc(Br)cc2)cc1,"inconclusive [inhibitor, single point]"
12,Cc1[nH]c2ccc(OCc3ccccc3)cc2c1CCN,"inconclusive [inhibitor, single point]"
13,Cc1ccc(-n2nc(C)c3c2NC(=O)CSC3c2ccc(O)cc2)cc1Cl (centres undefined),"inconclusive [inhibitor, single point]"
14,CCCCn1c(O)c(C(CC)=NCc2ccc3c(c2)OCO3)c(=O)[nH]c1=O,"inconclusive [inhibitor, single point]"
15,Cc1ccc(C)c(S(=O)(=O)c2nnn3c2nc(N2CCN(C)CC2)c2sccc23)c1,inactive
16,COc1ccccc1C(=O)Nc1ccc2nc(SCC(=O)N3CCCc4ccccc43)sc2c1,"inconclusive [inhibitor, partial curve, poor fit]"
17,CC(C)OP(=O)(OC(C)C)C(Nc1ccc([N+](=O)[O-])cc1)c1cccc([N+](=O)[O-])c1 (centres undefined),"inconclusive [inhibitor, partial curve, poor fit]"
18,CCOC(=O)C1(CCCc2ccccc2)CCN(C2CCC2)CC1,"inconclusive [inhibitor, partial curve, poor fit]"
19,O=c1c2ccccc2nc(/C=C/c2ccccc2O)n1-c1ccc(Br)cc1,inactive
20,C/C(=N\N1CCCCC1c1cccnc1)c1c(O)n(C2CCCCC2)c(=S)[nH]c1=O (centres undefined),"inconclusive [inhibitor, partial curve, poor fit]"
21,COC(=O)C1=C(c2ccc(-c3ccccc3)c(F)c2)C[C@@H]2CC[C@H]1N2C(=O)N1CCCC1,"inconclusive [inhibitor, partial curve, poor fit]"
22,COc1cccc(-n2c(/C=C/c3ccccn3)nc3ccccc3c2=O)c1,inactive

row,Compound,Potency
1,COc1ccc(C(=O)Oc2c(CN3CCOCC3)cc(Cl)c3cccnc23)cc1OC,"inconclusive [inhibitor, full curve]"
2,O=C(Cc1ccccc1[N+](=O)[O-])N1CCN(Cc2ccc3c(c2)OCO3)CC1,"inconclusive [inhibitor, partial curve]"
3,COc1cc(CN=C(C)c2c(O)n(C3CCCCC3)c(=O)[nH]c2=O)cc(OC)c1,"inconclusive [inhibitor, single point]"
4,COc1ccc2[nH]cc(CCN=C(NC(=O)c3ccccc3OC)Nc3nc(C)cc(C)n3)c2c1,"inconclusive [inhibitor, partial curve, poor fit]"
5,Cc1nn(C(C)(C)C)c(C)c1/C=N/OC(=O)Nc1ccc(Cl)c(Cl)c1,"inconclusive [inhibitor, partial curve, poor fit]"
6,Clc1ccccc1C1NCc2ccccc2-n2cccc21 (centres undefined),"inconclusive [inhibitor, partial curve]"
7,OC1(c2ccc(Cl)cc2)CCN(Cc2c[nH]c3ccccc23)CC1,"inconclusive [inhibitor, single point]"
8,CCCC1COC(Cn2cncn2)(c2ccc(Cl)cc2Cl)O1 (centres undefined),"inconclusive [inhibitor, single point]"
9,C=C[C@H]1CN2CC[C@H]1C[C@H]2[C@H](O)c1ccnc2ccccc12,inactive
10,CN(C(=O)COC(=O)c1cn(C)c2ccccc12)C1CCCCC1,"inconclusive [inhibitor, single point]"
11,CN1CCN(C(=O)COc2ccc(S(=O)(=O)Nc3ccc(Cl)cc3)cc2)CC1,"inconclusive [inhibitor, single point]"
12,CSc1ccc(CNC(C)C(O)c2ccccc2)cc1 (centres undefined),"inconclusive [inhibitor, single point]"
13,COc1ccc2c(c1)[C@@]13CCC=C[C@H]1[C@@H](C2)NCC3,"inconclusive [inhibitor, partial curve, poor fit]"
14,NC(Cc1ccc(F)cc1)c1csc(Nc2ccccn2)n1 (centres undefined),"inconclusive [inhibitor, single point]"
15,Cc1ccc(-n2c(=O)[nH]c3ccccc3c2=O)cc1[N+](=O)[O-],inactive
16,CCCCOc1ccc(CN2CCN(CC)CC2)cc1,"inconclusive [inhibitor, partial curve]"
17,COC(=O)C1=C(c2ccc(OCc3ccccc3)cc2)C[C@@H]2CC[C@H]1N2C(=O)NCc1ccccc1C(F)(F)F,"inconclusive [inhibitor, full curve, poor fit]"
18,O=C1NC2C(O)C(O)C(O)C(O)C2c2cc3c(c(O)c21)OCO3 (centres undefined),"inconclusive [inhibitor, full curve, poor fit]"
19,Oc1ccc(Cl)cc1Sc1cc(Cl)ccc1O,active: 10 µM [setting not given]
20,Cc1ccc(OP2(=O)Nc3cc(C)c(C)cc3S2)cc1 (centres undefined),"inconclusive [inhibitor, single point]"
